# The whole screen tested about 310,000 compounds, of which about 2,200 (0.71%) showed an effect of 50% or more. The effect is printed as a negative number. Some of the results follow.
# Biological target: human ether-à-go-go-related gene (hERG) potassium channel (human, UniProt Q12809)
# Assay: primary screen, population patch clamp on CHO cells stably expressing hERG
# Sequence of human ether-à-go-go-related gene (hERG) potassium channel (Q12809 whole entry, looked up): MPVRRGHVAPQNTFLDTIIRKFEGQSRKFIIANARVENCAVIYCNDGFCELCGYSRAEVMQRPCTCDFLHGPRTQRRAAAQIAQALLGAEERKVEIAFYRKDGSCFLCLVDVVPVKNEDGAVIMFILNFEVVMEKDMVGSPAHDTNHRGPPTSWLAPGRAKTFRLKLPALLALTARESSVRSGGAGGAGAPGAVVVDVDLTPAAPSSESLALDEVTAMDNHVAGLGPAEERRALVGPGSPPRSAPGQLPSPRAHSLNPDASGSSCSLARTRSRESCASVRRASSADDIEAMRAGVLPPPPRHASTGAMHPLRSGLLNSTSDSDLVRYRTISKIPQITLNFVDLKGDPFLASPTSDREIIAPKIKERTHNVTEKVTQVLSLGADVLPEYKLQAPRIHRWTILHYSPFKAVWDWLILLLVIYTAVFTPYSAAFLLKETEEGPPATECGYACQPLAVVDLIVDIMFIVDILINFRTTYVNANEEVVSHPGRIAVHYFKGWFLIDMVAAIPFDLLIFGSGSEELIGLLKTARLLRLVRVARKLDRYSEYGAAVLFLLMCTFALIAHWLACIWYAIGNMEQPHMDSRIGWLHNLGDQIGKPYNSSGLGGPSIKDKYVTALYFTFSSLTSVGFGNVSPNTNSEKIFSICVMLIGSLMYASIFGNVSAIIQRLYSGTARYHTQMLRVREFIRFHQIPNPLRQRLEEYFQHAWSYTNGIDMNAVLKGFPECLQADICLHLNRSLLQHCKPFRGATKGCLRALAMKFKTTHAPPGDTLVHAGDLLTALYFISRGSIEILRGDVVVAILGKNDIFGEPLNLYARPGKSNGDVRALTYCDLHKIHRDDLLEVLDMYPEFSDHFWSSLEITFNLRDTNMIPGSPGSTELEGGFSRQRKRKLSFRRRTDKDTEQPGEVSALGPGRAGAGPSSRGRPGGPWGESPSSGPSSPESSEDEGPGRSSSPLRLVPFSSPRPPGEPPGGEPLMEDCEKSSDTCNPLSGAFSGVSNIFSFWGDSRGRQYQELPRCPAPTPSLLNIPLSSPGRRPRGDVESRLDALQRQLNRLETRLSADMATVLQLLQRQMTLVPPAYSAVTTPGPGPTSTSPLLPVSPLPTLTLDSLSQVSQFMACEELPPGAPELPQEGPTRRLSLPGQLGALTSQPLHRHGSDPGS
row,Compound,"hERG current change (%, negative = inhibition) at 1uM [%]"
1,CCCCC(=O)Nc1ccccc1C(=O)N1CCOCC1,8.91
2,CC(C)=C1C2CCC1C1C(=O)N(c3nccs3)C(=O)C21 (stereo not shown),17.3
3,COc1cc(NC(=O)c2ccc3c(c2)OCO3)c2ncccc2c1,14.7
4,Cc1ccc(C(=O)NNC(=O)c2cccc(S(=O)(=O)N3CCN(c4ccccc4)CC3)c2)cc1,-0.28
5,CC(C)(O)/C=C1/Oc2ccccc2C1N1CCCCC1 (stereo not shown),2.26
6,COc1ccccc1CNC(=O)CSc1ccc(C(=O)Nc2ccccc2OC)cc1[N+](=O)[O-],10.2
7,CO/N=C\Cc1oc(=O)c(NC(=O)c2ccccc2)cc1C(=O)OC,3.64
8,Cc1ccc(N2CC(C(=O)Nc3nnc(SCc4ccccn4)s3)CC2=O)cc1 (stereo not shown),2.44
9,C=CCn1c(SCC(=O)N2CCCCCC2)nc2ccccc2c1=O,-17.5
10,CCN(CC)S(=O)(=O)c1ccc(C(=O)NNC2=NS(=O)(=O)c3ccccc32)cc1,17.6
11,CC1C2C(c3ccccc3)N(C)C(=O)N(C)C2N(C)C(=O)N1C (stereo not shown),4.46
12,Cc1ccc(Cn2cccc(NC(=O)CCC3CCCC3)c2=O)cc1,1.91
13,Cc1cc(C(=O)Nc2cccc(O)c2)c(C)o1,9.98
14,COc1ccc(NC(=O)/C(C#N)=C\c2cc(C)n(-c3ccc4c(c3)OCO4)c2C)cc1,6.96
15,O=C(/C=C/c1ccco1)N(Cc1ccccc1)C1CCS(=O)(=O)C1 (stereo not shown),6.24
16,CC[N+](CC)(CCO)CCCN1C(=O)C2CC=C(Cl)CC2C1=O.[Br-] (stereo not shown),13.3
17,O=C(CC(=O)NC1CCCCC1)N/N=C/c1cccc2ccccc12,11.5
18,c1ccc2c(c1)nc(N1CCOCC1)c1nnnn12,11.2
19,O=S(=O)(NCCc1ccccc1)c1cccs1,14.4
20,Cc1ccc(Nc2nc(CSc3nnc(-c4ccncc4)n3C)cs2)cc1,-6.91
21,CC(C)(C)NC(=O)CSc1nnc(NC(=O)CCc2ccccc2)s1,12.2
22,Cc1ccc(C2=[N+]([O-])C(C)(C)CC2)cc1,14.4
23,CCC1CN(C)CCC1(OC(C)=O)c1ccccc1.Cl (stereo not shown),11.8

row,Compound,"hERG current change (%, negative = inhibition) at 1uM [%]"
1,COC(=O)c1ccc(N)cc1O,16.6
2,O=C(COC(=O)c1ccc(S(=O)(=O)N2CCCC2)cc1)Nc1ccc(N2CCOCC2)cc1,16
3,Cc1ccc(C(=O)N2c3ccccc3OCC2C)cc1 (stereo not shown),10.8
4,COc1ccc(OC)c(S(=O)(=O)N2CCC(C(=O)Nc3ccc(C)c(C)c3)CC2)c1,8.67
5,CC1(C)CC(=O)c2c(noc2-c2ccccc2)C1,13.4
6,Cc1cccc(C(=O)OCC(=O)NN2C(=O)NC3(CCC(C)CC3)C2=O)c1O (stereo not shown),10.6
7,COc1cccc(OC)c1C(=O)NC(C)C12CC3CC(CC(C3)C1)C2 (stereo not shown),11.6
8,O=C1C(Cl)=C(NCCCN2CCOCC2)C(=O)N1CCc1ccccc1,-8.18
9,CN1CCN(C(=O)c2ccccc2NC(=O)c2cccc(Cl)c2)CC1,1.38
10,CCN(CC)c1ccc(NC(=O)COC(=O)CCC(=O)c2cccs2)cc1,6.19
11,CCc1ccc(OC)c(S(=O)(=O)NCc2cccs2)c1,7.29
12,Cc1ccc(NC(=O)C2(c3ccccc3)CCOCC2)cc1,11
13,Cc1nn(-c2cc(C)c3ccccc3n2)c2c1CCC2,9.38
14,Cc1cc(N2CCCC(C(=O)Nc3cccc(Cl)c3)C2)n2ncnc2n1 (stereo not shown),-1.1
15,CCOC(=O)c1c(NC(=O)C2c3ccccc3Oc3ccccc32)sc(C(=O)N(CC)CC)c1C,11.7
16,CC1C(=O)NN=C1C(=O)N/N=C/c1cccs1 (stereo not shown),15.1
17,COC(=O)c1ccc(N/C=C/C(=O)c2ccccc2)cc1,16.9
18,COc1cc(Nc2ncnc(N)n2)cc(OC)c1,8.58
19,O=C(Nc1cc(Br)ccc1O)C1CC(c2c(F)cccc2Cl)=NO1 (stereo not shown),16
20,COC(=O)C1CCN(CC(=O)N(C)c2c(N)n(Cc3ccccc3)c(=O)[nH]c2=O)CC1,-3.83
21,FC(F)(F)COc1cc(-c2nnc(SCc3ccccc3)n2Cc2ccco2)cc(OCC(F)(F)F)n1,7.9
22,CCc1cc(Cn2nc(-c3ccccc3)cc2C(=O)NCc2cccs2)on1,-2.22
23,COCc1cc(=O)n2[nH]cc(-c3ccsc3)c2n1,6.74

# Reference: publication PMC4336329 (PLoS ONE, 2015)
